Test results from the RNAGym collection of RNA variant scans (doi:10.1093/nar/gkz1192).
Read counts are not given, so values of variants with three or more changes are uncertain.

B1: CPEB3 Ribozyme (parent)
chain: UAACAGGGGGCCACAGCAGAAGCGUUCACGUCGCAGCCCCUGUCAGAUUCUGGUGAAUCUGCGAAUUCUGCUGUAUAUCUC

Variants of: B1
Experiment: self-cleavage, relative activity (ratio to wild type); higher = more cleavage; in vitro, sequencing
In short: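 Barcoded CPEB3 ribozyme mutants, produced by rounds of error-prone PCR, self-cleaved while being transcribed with T7 RNA polymerase for 5 hours at 37°C and during a subsequent 15 min DNase I step before EDTA was added. Sequencing of template-switched cDNA on Illumina gave cleaved and total reads, and DNA sequencing assigned barcodes to variants. Each variant's relative activity is its cleaved/total read fraction divided by the unmutated ribozyme's fraction, averaged across three batches. A variant needed a minimum of 5 reads.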

Row | Variant | self-cleavage
1 | UAACAGAGGGCCACAGCAGUAGCGUUCGCGUCGCAGCCCCUGUCAGAUUCUGGUGAAUCUGCGAAUUCUGCUGUAUAUCUC | 0.08
2 | UAACAGAGGGCCACAGCAGUAGCGUUCACGUCGCAGCCCCUGUCAGAUUCUGGUGAGUCUGCGAAUUCUGCUGUAUAUCUC | 0.28
3 | UAACAGAGGGCCACAGCAGUAGCGUUCAUGUCGCAGCCCCUGUCAGAUUCUGGUGAGUCUGCGAAUACUGCUGUAUAUCUC | 0.04
4 | UAACAGAGGGCCACAGCAGAGGCGUUCACGUCGCAGCCCCUGUCUGAUUCUGGUGAAUCUGCGAAUUCUGCUGGAUACCUC | 0.26
5 | UAACAGAGGGCCACAGCAGAGGCGCUCACGUCGCAGCCUCUGUCAGAUUCUGGUGAAUCAGCGAAUUCUGCUGUAUAUCAC | 0.07
6 | UAACAGAGGGCCACAGCAGAAGCGUUCGCGUCGCUGCCCCUGUCAGAUUCUGGUGAAUCUGCGAAUUCUGCUGUAUAUCUC | 0.06
7 | UAACAGAGGGCCACAGCAGAAGCGUUCGCGGCGCAGCCCCUGUCAGAUUCUGGUGAAUCUGCGAAUUCUGCUGUAUAUCUC | 0.15
8 | UAACAGAGGGCCACAGCAGAAGCGUUCGCGUCGCAGCCCCCGUCAGAUUCUGGUGAAUCUGCGAAUUCUGCAGUAUAUCUC | 0.06
9 | UAACAGAGGGCCACAGCAGAAGCGUUCUCGUCGCAGCCCCACUCAGAUUCUGGUGAAUCUGCGAGCUCCGCUGUAUAUCUC | 0.08
10 | UAACAGAGGGCCACAGCAGAAGCGUUCACGUCGCGGCCCCUGUCAGAUUCUGGUGGAUCUGCGAAUUCUGCUGCAUAUCUC | 0.32
11 | UAACAGAGGGCCACAGCAGAAGCGUUCACGUCGCGGUCCCUGUCAGAUUCUGGCGAACCUGCGAAUUCUGCUGUAUAUCUC | 0.08
12 | UAACAGAGGGCCACAGCAGAAGCGUUCACGUCGCGGCCCCUGUAAGAUUCUGGUGAAUCUGCGAAUUCUGCUGUAUAUCCC | 0.07
13 | UAACAGAGGGCCACAGCAGAAGCGUUCACGUCGCUGCCCCUGUCAGAUUCUGGUGAUUCUGCGAACUCUGCGGCAUAUCUC | 0.12
14 | UAACAGAGGGCCACAGCAGAAGCGUUCACGUCGCUGCCCCUGUCAGAUUCUGGUGAAUCUGCGAAUUCUGCUGUAUACCUC | 0.2
15 | UAACAGAGGGCCACAGCAGAAGCGUUCACGUCGCAGCCCCUGUCUGAUUCUGGAGUAUCUGCGAAUUCUGCUGUAUCUCAC | 0.04
16 | UAACAGAGGGCCACAGCAGAAGCGUUCACGUCGCAGCCCCUGUCAGAUUCUGGUGUAACUGCGAAUUCUGCUGUAUACCUC | 0.09
17 | UAACAGAGGGCCACAGCAGAAGCGUUCACGUCGCAGCCCCUGUCAGAUUCUGGUGAAUCUGCGUAUUCUGCUGUAUGUCUC | 0.06
18 | UAACAGAGGGCAACAGCAGGAGCGUUCACGUCGCACCCCCUGUCAGAUUCUGGUAAAUCUGCUAAUCCUGCUGUAUAUCUC | 0.04
19 | UAACAGAGGGCCAUAGCAGAAGCGUUUACGUCGCAGCCCCUGUCGGAUUCUGGGGAAUCUGCGAAUUCUGCUGCUUAUCUC | 0.04
20 | UAACAGAGGGCCACAGUAGAAGCGAUCACGUCGCAGCCCCAGUCGGAUUCUGGUGAAUCUGCGAAUUCUGCUGUAUAUCUC | 0.08
21 | UAACAGAGGGCCACAGCAGAAGUGUUCACGUCGCAGCCCCAGUCAGAUUCUGGUGAAUCUGCGAAUUCUGCUGUAUAUCCC | 0.19
22 | UAACAGAGGGCCACAGCAGAAGCGUUCAUGACGCAGCCCCUGCCAGAUUCUGGUGAAUCUGCGAAUCCUGCUGUAUAUCUC | 0.01
23 | UAACAGAGGGCCACAGCAGAAGCGUUCACGUGGCAGCCCCUGUCAGAUUCUGGUGAAUCUGCGAAUUCUGCUGUAUAACUC | 0.04

Row | Variant | self-cleavage
24 | UAACAGAGGGCCACAGCAGAAGCGUUCACGUUGCAGCCCCUGUCAGAUUCUGGUGAAUCUGCGAAUUCUGCAGUAUAUCUC | 0.12
25 | UAACAGAGGGCCACAGCAGAAGCGUUCACGUCGCAGCCGCUGUCAGAUUCUGGUGAGUCUGCGAAUUCUGCUGUAUGUCCC | 0.05
26 | UAACAGAGGGCCACAGCAGAAGCGUUCACGUCGCAGCCCUUGUCAGAUUCUGGUGAAUCUGCGAAUUCUGCUGUAUAUCCC | 0.44
27 | UAACAGAAGGCCACAGCAGAAGCGUUCACGUCGUAGCCCCUGUCAGAUUCUGGUGAAUCUGCGAAUUCUGCUGUAUAUCUC | 0.07
28 | UAACAGAGAGCCACAGCAGAAGCGUUCAUGUCGCAGCCCCUGUCAGAUUCUGGUGAAUCUGCGAAUUCUGCUGUAUAUCUC | 0.06
29 | UAACAGAGGGCCACAGCAAAAGCGUUCACGUCGCAGCCCCUGUCAGAUUCUGGUGAAUCUGCGAAUUCUGCUGUAUAUCCC | 0.29
30 | UAACAGAGGGCCACAGCAGAAGCACUCACGUCGCAGCCCCUGUCAGAUUCUGCUGAAUCUGCGAAUUCUGCAGUAUAUCUC | 0.07
31 | UAACAGAGGGCCACAGCAGAAGCGUUCACGUCACAGCCCCUGUCAGAUCCUGGUGAAUCUGCGAAUUCUGCUGUAUAUCUC | 0.05
32 | UAACAGAGGGCCACAGCAGAAGCGUUCACGUCGCAUCCCCUGUCGGGUUCUGGUGAAUCAGCGAAUUCUGCAGUAUAUCUC | 0.11
33 | UAACAGAGGGCCACAGCAGAAGCGUUCACGUCGCAGCCCCUUUCGGAUUCUGGUGAGUCUGCGAAUUCUGCUGUAUAUCUC | 0.05
34 | UAACAGAGGGCCACAGCAGAAGCGAUCACGUCGCAGCCCCUGUCAGAUUCUGGUGGAUCUGCGAAUUCUGCUGUAUAUCUC | 0.12
35 | UAACAGAGGGCCACAGCAGAAGCGAUCACGUCGCAGCCCGUGUCGGAUGCUGGUGAAUCUGCGAAUUCAGCUGUAUAUCUC | 0.09
36 | UAACAGAGGGCCACAGCAGAAGCGCUCACGUCGCGGCCCCCGUCAGAUUCUGGUGAAUCUGCGAAUUCUGCUGUAUAUCUC | 0.06
37 | UAACAGAGGGCCACAGCAGAAGCGCUCACGUCGCAGCCCCUGUCUGAUUCUGGUGAAUCUGCGAAUUCUGCAGUAUAUCUC | 0.06
38 | UAACAGAGGGCCACAGCAGAAGCGCUCACGUCGCAGCCCCUGUCAGAUUCUGGUGAAUCUGCGAGUUCCGCUGUAUAUCUC | 0.08
39 | UAACAGAGGGCCACAGCAGAAGCGCUAACGUCGCAGCCCCUGUCAGAUUCCGGUGAAUCUGCGGAUUCUGCUGUAUAUCUC | 0.05
40 | UAACAGAGGGCCACAGCAGAAGCGCUCACGUCGCAGCCCCUGUCAGAUUCUGUUGAAUCUGCGAAUUCUGCUGUAUUUCUC | 0.06
41 | UAACAGAGGGCCACAGCAGAAGCGCCCACGUCGCAGCCCCUGUCAGGUUCUGGUGGAUCUGCGAAUUCUGCUGUAUAUCUC | 0.07
42 | UAACAGAGGGCCACAGCAGAAGCGCUCACGUCGCAGCCCCUGUCAGACUCUGGCGAAUCUGCGAAUUCGGCAGUAUAUCUC | 0.16
43 | UAACAGAGGGCCACAGCAGAAGCGCUCACGUCGCAGCCCCUGUCAGAUUCUGGUGAAUCUGCGAAUUCUGCUGUAUAUCCC | 0.12
44 | UAACAGAGGGCCACAGCAGAAGCGGUCACGUCGCAGCCCCUGUCAGAUUCUGGUGAAUCUGCGAUUUCUGCAGUAUAUCUC | 0.08
45 | UAACAGAGGGCCACAGCAGAAGCGUACACGUCGCAGCCCCUGUCAGACUCUGGUGAAUCUGCGAAUUCUCCUGUAUAUCUC | 0.14
46 | UAACAGAGGGCCACAGCAGAAGCGUCCACGUCGCAGCCCCUGUCAGAUUCUGGUGGAUCUGCGAAUUCUGCCGUAUAUCCC | 0.31

Row | Variant | self-cleavage
47 | UAACAGAGGGCCACAGCAGAAGCGUCCACGUCGCAGCCCCUGCCAGAUUCUGGUGAAUCCGCGAACUCUGCUGUAUAUCUC | 0.06
48 | UAACAGAGGGCCACAGCAGAAGCGUCCACGUCGCAGCCCCUGUCAGAUUCUGGCGAAUCUGCGAAUCCUGCUGUAUAUCUC | 0.11
49 | UAACAGAGGGCCACAGCAGAAGCGUGCACGUCGCAGCCCCCGUCAGAUCCAGGUGAAUCUGCGAAUUUUGCUGUAUAUCUC | 0.04
50 | UAACAGAGGGCCACAGCAGAAGCGUUCACGCCGCAGCCCCUGUCAGAUUCUGGUGAAUCUGCGAAUUCUACCGUGUAACUC | 0.03
51 | UAACAGAGGGCCACAGCAGAAGCGUUCACGUCGCAGCCCCAGUCAGAUUCUGGUGAGUCUGCGAAUUCUGCUGUAUAUCUC | 0.2
52 | UAACAGAGGGCCACAGCAGAAGCGUUCACGUCGCAGCCCCGGUCAGAUUCUGGUGAAUCUGCGAAUUCCGCUGUAUAUCUC | 0.09
53 | UAACAGAGGGCCACAGCAGAAGCGUUCACGUCGCAGCCCCUGUCAGACUCUGGUGUAUCUGCCAUUUCUGCUGUAUAUCUC | 0.07
54 | UAACAGAGGGCCACAGCAGAAGCGUUCACGUCGCAGCCCCUGUCAGACUCUGGUGAAUCUGCGAAUUCUGCUGUAUAACUC | 0.16
55 | UAACAGAGGGCCACAGCAGAAGCGUUCACGUCGCAGCCCCUGUCAGAUUCUGGAGAAUCUGCGGAUUCUGCUGUAUAUCUC | 0.19
56 | UAACAGAGGGCCACAGCAGAAGCGUUCACGUCGCAGCCCCUGUCAGAUUCUGGCGAAUCUGCGGAUCCUGCUGUAUAUCUC | 0.11
57 | UAACAGAGGGCCACAGCAGAAGCGUUCACGUCGCAGCCCCUGUCAGAUUCUGGUGAAUCUGCGAAUCUUGCUGUAUAUCCC | 0.28
58 | UAACAGAGGGCCACAGCAGAAGCGUUCACGUCGCAGCCCCUGUCAGAUUCUGGUGAAUCUGCGAAUCCUGCUGGAUAUCUC | 0.04
59 | UAACAGAGGGCCACAGCAGAAGCGUUCACGUCGCAGCCCCUGUCAGAUUCUGGUGAAUCUGCGAAUUCAGCUGUAUACCUC | 0.23
60 | UAACAGCGGGCCUCAGCAGAAGCGUUCACGUCGCAGCCCCUGUCAGAUUCUGGAGAGUCUGCGAAUUCUGCAGUAUAUCUC | 0.07
61 | UAACAGCGGGCCUCAGCAGAAGCGUUCACGUCGCAGCCCCUGUCAGAUUCUGGAGAAUCUGCGGAUUCAGCUGAAUAUCUC | 0.05
62 | UAACAGCGGGCCACCGCAGGAUCGUUCACGUCGCAGCCCCUGUCAGAUACUGGUGAAUCUGCGAAUUCUGCUGUAUAUCUC | 0.45
63 | UAACAGCGGGCCACGGCGGAAGCGUUCGCGUCGCAGCCCCAGUCAGAUUCUGGUGAAUCUGCGAAUUCAGCUGCAUAUCUC | 0.05
64 | UAACAGCGGGCCACGGCAGAAGCGUUCUCGUCGCAGCCCCUGUCGGAUUCUGGUGAAUCUGCGAAUUCUGCUGUAUGUCUC | 0.26
65 | UAACAGCGGGCCACGGCAGAAGCGUUCACGUCGCGGCCCCUGUCAGAUUCUGGUGAUUCUGCGAAUUCUGCUGUAUACCUC | 0.28
66 | UAACAGCGGGCCACGGUAGAAGCGUUCACGUAGCAGCCCCUGUCAGAUUCUGGUGAAUCUGCGAAUUCUGCCGUAUAUCCC | 0.05
67 | UAACAGCGGGCCACGGCAGAAGCGCUCACGUCGCAGCCCUUGUCAGCUUCUGGUGAAUCUGCGAAUUCUGCUGUAUAUCUC | 0.23
68 | UAACAGCGGGCCACAGCCGAUGCGUUCACGUCGCAGCCCCUGUCAGAUUCUGGUGAAUCUGCGAAUUCUGCUGUAUAUCUC | 0.21
